Data as given in PubChem BioAssay AID1508623 (National Center for Advancing Translational Sciences (NCATS), 2021).
In all, about 48,000 compounds went through this assay and about 450 (0.94%) were called active. Roughly 19% stayed inconclusive and do not appear here. Calls come from the whole dose curve; as a rule, active = well fitted inhibition curve with a large enough effect; inconclusive = small, poorly fitted or top-dose-only effect; inactive = no such curve, though single readings can be large or run the other way. Some of the results follow.

Experiment: Primary qHTS for Identification of Small Molecule Inhibitors of Huntingtin Promoter Activity; note: nearly all actives have a fitted effect of over 50% in size
Details: HEK293 HTT promoter firefly luciferase reporter (activity 0% = vehicle and -100% = no light), 24 h; series mostly up to 57.5 µM; activity change, negative = inhibition: at the top concentration
Procedure, shortened: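 Firefly luciferase signal from promoter-reporter HEK293 cells was scaled between vehicle (0%) and zero RLU (-100%). Compounds were tested at final concentrations of up to 57.5 uM over 24 h at 37 degrees C. PTC124 at 50 uM final served as control inhibitor.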
Potency is the fitted concentration of half-maximal effect.

Activity change, negative = inhibition, inactive:
Cc1c(Cl)cccc1NC(=O)Cn1cnc(S(=O)(=O)N2CCCC2)c1 -15.9%
COc1ccc(NC(=O)CC2C(=O)N(c3ccc(C)cc3)C(=O)N2Cc2ccc(C)cc2)cc1 (stereo unspecified) -17.1%
CCN(CC)CCCNC(=O)c1nn(-c2ccc(OC)cc2)c(=O)c2c1c1ccccc1n2C -8.42%
Nc1ccc(S(=O)(=O)NC2(C(F)(F)F)NC(=O)N(c3cccc(Cl)c3)C2=O)cc1 (stereo unspecified) 1.47%
COC(=O)c1cccc(CN2C(=O)SC(Nc3ccc(Cl)cc3)C2=O)c1 (stereo unspecified) -17.8%
CCOC(=O)c1noc2ncnc(Nc3cccc(C(F)(F)F)c3)c12 -9.68%
CCCCOc1ccc(C(=O)Nc2nc3c(s2)CC(C)CC3)cc1 (stereo unspecified) -27.5%
CC(=O)Nc1ccc(NC(=O)CCc2c(C)nc3c(c(C)nn3-c3ccccc3)c2C)cc1 8.21%
COCCNC(=O)c1ccc2c(c1)N(Cc1c(F)cccc1Cl)C(=O)c1ccccc1S2 -25.3%
CCOC(=O)c1c(C)oc2nc(C)nc(NCc3ccc(OC)cc3)c12 6.71%
Cc1cnc2c(c1SCC(=O)NCc1ccccc1Cl)c(=O)n(C)c(=O)n2C -6.96%
CC(C)(Oc1ccc(Cl)cc1)C(=O)Nc1nnc2n1CCS2 -10%
CCCCNC(=O)CC1N=C2c3ccccc3N=C(SCC(=O)NCc3ccccc3Cl)N2C1=O (stereo unspecified) -7.86%
COc1cccc(C(=O)Nc2cccc(OCc3cc(=O)n4cccc(C)c4n3)c2)c1 -2.72%
Cc1ccc(NC(=O)CCC(=O)N2CCSc3ccccc32)cc1 -13.2%
Clc1ccc(-c2noc(-c3cccnc3N3CCN(c4ccccc4)CC3)n2)cc1 2.48%
CCOc1ccc(NC(=O)Cn2cc(C(=O)c3ccccc3)c(=O)c3cc4c(cc32)OCCO4)cc1 -8.28%
Cc1ccn2c(Nc3ccccc3C)c(-c3cccnc3)nc2c1 -18.7%
CCOc1ccc(CCNC(=O)C2CCN(Cc3nc(-c4ccccc4C)oc3C)CC2)cc1OCC -4.74%
O=C(CC(NCc1cccnc1)C(=O)O)Nc1ccc(O)cc1 (stereo unspecified) -22.4%
CCN(C(=O)CSc1nc2ccccc2n1CC(=O)N1CCCC(C)C1)c1ccccc1 (stereo unspecified) -22.4%
Fc1ccc(Nc2c(-c3ccco3)nc3ccccn23)cc1 -37.3%
Cn1c(=O)c(=O)n(C)c2cc(S(=O)(=O)Nc3ccc(Cl)c(C(F)(F)F)c3)ccc21 -27.9%
CC(C)(C)c1ccc(C(=O)N2CCN(Cc3cc(=O)n4nc(-c5ccccc5F)sc4n3)CC2)cc1 -2.58%
Cc1ccc(NC(=O)C2CCC(CNS(=O)(=O)c3ccc4c(c3)C(C)(C)C(=O)N4C)CC2)cc1 (stereo unspecified) -25.6%
CCOc1ccc(CNC(=O)Cc2ccc(NC(=O)N3CCCCc4ccccc43)cc2)cc1OC -27.3%
COc1cc(OC)c(NC(=O)Cn2cnc3nc4c(cc3c2=O)CCCC4)cc1Cl -23.2%
Cc1cc(=O)oc2cc(OCC(=O)Nc3c(C(C)C)cccc3C(C)C)ccc12 -1.56%
COc1cc(NC(=O)CCNC(=O)Cn2cnc3ccccc3c2=O)cc(OC)c1OC -7.53% [at 11.5 µM]
COc1ccc(CCn2c(=O)c3cccnc3n(CC(=O)Nc3c(C)cc(C)cc3C)c2=O)cc1OC 8.73%
Cc1cc(C)c(NC(=O)Nc2csc3c2CCCC3)c(C)c1 -3.74%
O=C(CCCCCn1c(=O)[nH]c2ccccc2c1=O)NCc1ccc(Cl)cc1 -3.25%
CCC(=O)N1CCc2cc(Br)cc(S(=O)(=O)NCc3ccccc3)c21 -9.12%
O=C(O)c1cc(=O)c2c(OCC(O)COc3cccc4oc(C(=O)O)cc(=O)c34)cccc2o1
CSc1ccc(CCNC(=O)C2CCN(c3ncnc4c3nc3n4CCCCC3)CC2)cc1 -3.46%
CCN(CC)C(=O)COc1ccc(-c2nnc(Nc3ccc(OC)c(C(=O)NC)c3)c3ccccc23)cc1 1.72%
Cc1sc2ncn(CC(=O)N(C)c3cccc(C(F)(F)F)c3)c(=O)c2c1S(=O)(=O)N1CCN(c2ncccn2)CC1 -14.6%
Fc1ccc(-n2ncc3c(N4CCN(c5ccccc5F)CC4)ncnc32)cc1 -25.4%
Cc1cc(=O)oc2c3c(ccc12)OCN(Cc1ccc(Cl)cc1)C3 -11.4%
CCn1nc(C)c2c(-c3ccccc3)cc(=O)n(C(C)C(=O)NCCc3ccccc3)c21 (stereo unspecified) -14.3%
COc1cccc(-c2nnc3sc(CN4CCCCC4)cn23)c1 0%
CCC1CCCCN1C(=O)Cn1c(=O)n(CCCCCC(=O)NCc2ccccc2Cl)c(=O)c2sccc21 (stereo unspecified) -6.59%
O=C(NCCc1ccc(Cl)cc1)c1ccc2c(c1)N(Cc1cccc(Cl)c1)C(=O)c1ccccc1S2(=O)=O -28.6%
Fc1ccccc1Nc1ncnc2c1nc1n2CCCCC1 22.5%
COc1ccc(C2CC(=O)Oc3c2c(=O)n(C)c2ccccc32)c(OC)c1OC (stereo unspecified) -16.7%
CCOc1ccc(NC(=O)CS(=O)(=O)Cc2nc(-c3ccc(C)cc3)oc2C)cc1 -21.8%
CC(=O)OC(C)C[N+](C)(C)C (stereo unspecified) 2%
COc1ccc(OC)c2sc(N(CCCN(C)C)C(=O)c3ccco3)nc12 -13%
CCCCOc1ccc(CC(=O)NO)cc1
Cc1ccccc1CNC(=O)CCSCc1cnn(-c2ccccc2)c1-n1cccc1 -30%
O=c1c2oc3ccccc3c2ncn1Cc1ccc(Br)cc1 -3.72%
COc1ccc(C2c3c(oc4ccccc4c3=O)C(=O)N2c2nc(C)c(C)s2)cc1 (stereo unspecified) -16.6% [at 11.5 µM]
Cc1nc2nc(C)c(CCC(=O)NCCc3ccccc3)c(C)n2n1 3.47%
Cc1ccc2nc(CN3CCN(S(=O)(=O)c4ccccc4)CC3)oc2c1 0%
CC(C)Oc1cccc(C(=O)Nc2ccc3oc(-c4ccccc4)nc3c2)c1 -25.5%
CCc1ccc(NC(=O)CSc2nc3ccccc3c(=O)n2CCC(=O)NC2CCCCC2)cc1 -16.6%
CCC(Sc1nc2cc3c(cc2c(=O)n1CCCC(=O)NCc1ccc2c(c1)OCO2)OCO3)C(=O)NCCCOC (stereo unspecified) -14.8%
CCC(=O)N1c2ccc(S(=O)(=O)N3CCCCCC3)cc2CC1C (stereo unspecified) -8.68%
Nc1c(-c2nc(-c3ccccc3Cl)no2)nnn1-c1ccccc1F 89.1%

Potency, active:
COc1ccc(CCNC(=O)Cn2nc(C)c3c(C)n(-c4ccc(C)cc4)nc3c2=O)c(OC)c1 2.51 µM
CCOc1ccc(C(NC(=O)c2cc(OC)c(OC)c(OC)c2)c2cc(Cl)c3cccnc3c2O)cc1 (stereo unspecified) 3.55 µM
